According to the supplement of paper PMC4166925:
± gives the standard deviation of the averaged measurements. In all, about 33,000 sequences were measured (“E-score (dimensionless, -0.5 to 0.5)”: median about -0.049, highest 2% from about 0.37 on). The list shows a part of the results.

test system: T1, PmTbr T-box DNA-binding domain (GST fusion); assay: PBM E-score of 8-mer (E-score (dimensionless, -0.5 to 0.5)); Tbr is Tbrain of the sea star Patiria miniata (Pm) or the sea urchin Strongylocentrotus purpuratus (Sp); higher = stronger binding preference; most listed sequences are background and not binding sites; settings: the construct has about 5 more residues each side
T1 sequence: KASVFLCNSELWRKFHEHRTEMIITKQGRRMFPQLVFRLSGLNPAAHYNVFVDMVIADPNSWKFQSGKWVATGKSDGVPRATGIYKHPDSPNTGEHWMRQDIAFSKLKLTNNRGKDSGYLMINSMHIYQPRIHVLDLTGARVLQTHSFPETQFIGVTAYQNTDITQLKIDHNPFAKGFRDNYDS
Outline: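 Each ungapped 8-mer received an enrichment E-score from the Universal PBM Analysis Suite, averaged over duplicate arrays. The proteins were Tbr T-box DNA-binding domains, covering the whole T-box plus about five flanking residues, fused to GST and expressed in BL21 E. coli at 20 °C before glutathione affinity purification. Universal Agilent oligonucleotide arrays were made double-stranded by primer extension and incubated with 200 nM protein in PBS (pH 7.5). The arrays were then scanned and quantified, and every 8-mer was scored from probe intensities.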

Sequence | PBM E-score of 8-mer
ATACGGAA | -0.225 ± 0.03
CCGATCGA | -0.0184 ± 0.032
AGTCACGC | 0.355 ± 0.0042
GATAGAAA | -0.0568 ± 0.013
TCCCAGGA | -0.149 ± 0.1
AAATCTTC | -0.18729 ± 2.8e-05
GAATTCCA | -0.0434 ± 0.077
AGAGAACC | -0.175 ± 0.069
ACTTGGGC | 0.037 ± 0.1
CCTAAGAG | -0.395 ± 0.032
TGGCCCCA | -0.00775 ± 0.092
AGAGAACA | 0.0218 ± 0.019
ACATAGCC | -0.215 ± 0.02
CCCGCTGA | 0.118 ± 0.013
ATTCCCGC | 0.0767 ± 0.0069
AGGAGCCG | 0.161 ± 0.0058
CCCTATTC | -0.075 ± 0.0014
AGGCAGAG | -0.169 ± 0.12
ACTCCACC | -0.0966 ± 0.022
GGTGGTCA | 0.0217 ± 0.017
TGTGGAAA | 0.23 ± 0.03
ATCTTTTC | -0.0625 ± 0.018
AACTATTC | -0.0329 ± 0.04
CACCTCGC | 0.458 ± 0.0073
AGTTATTG | -0.0545 ± 0.017

Sequence | PBM E-score of 8-mer
CAAGCGTA | -0.0541 ± 0.078
CTTAACAC | 0.434 ± 0.013
CCCTGCAA | -0.202 ± 0.028
AAGCCCTA | -0.183 ± 0.034
ACGGGAGT | 0.00023 ± 0.012
CACATTCC | 0.198 ± 0.033
CCCATAGG | -0.206 ± 0.12
GTATCAAA | -0.23 ± 0.027
CCTTGGCA | 0.075 ± 0.0069
ACGGTTGC | 0.0738 ± 0.027
GTTATCGA | 0.143 ± 0.045
ACTTAAAA | -0.137 ± 0.031
ATGCGCGC | 0.159 ± 0.041
CTGGCCAA | -0.173 ± 0.011
CGGCTATC | -0.153 ± 0.031
AAGGGGCC | -0.0989 ± 0.015
AGTTACAG | -0.145 ± 0.015
ACACGGTC | 0.0427 ± 0.034
CACGATAG | -0.0486 ± 0.033
CCAAATGA | -0.12 ± 0.077
CGAACGCC | 0.124 ± 0.053
AGCGGAAT | -0.139 ± 0.0086
GATCATTA | -0.321 ± 0.022
AGCTGGGC | -0.222 ± 0.056
GCAGTCAA | 0.084 ± 0.045

Sequence | PBM E-score of 8-mer
AGATCGAC | -0.146 ± 0.011
TCCACACA | 0.267 ± 0.02
AAATTCGA | -0.0418 ± 0.0085
GGCATTGA | -0.129 ± 0.038
GCCAAGGC | -0.021 ± 0.053
CTAAAAAG | 0.0405 ± 0.075
CAGTGTCG | 0.289 ± 0.0095
ATGCACTG | -0.2 ± 0.043
AATATTTA | -0.16 ± 0.087
ACCAAAGA | -0.0522 ± 0.0041
TAGCAATA | 0.0863 ± 0.0094
ATTGGGAG | -0.226 ± 0.044
CACTACTC | -0.096 ± 0.085
AGAACAAT | -0.125 ± 0.035
CGTATAGC | 0.011 ± 0.034
GTCGTAAA | -0.0603 ± 0.06
AAAGTGTG | 0.435 ± 0.012
AAAACTCC | -0.143 ± 0.087
CCAACACC | 0.443 ± 0.011
ATCTTGCA | 0.00605 ± 0.059
CCGGACAC | 0.168 ± 0.065
GAAGCACC | -0.131 ± 0.0077
CCGTGCAG | -0.116 ± 0.008
GACTACTC | -0.09932 ± 0.00083
ATCGGATC | -0.176 ± 0.078

Sequence | PBM E-score of 8-mer
AGGCGTTA | 0.4486 ± 0.0021
CAATCCAA | 0.14 ± 0.034
ACGTGTAC | -0.0192 ± 0.045
CTCGCCGA | 0.00819 ± 0.089
AGTATAAT | -0.0999 ± 0.092
TACTACCA | -0.37 ± 0.019
CAAAGATA | -0.0148 ± 0.024
CGTCCAGA | -0.109 ± 0.044
GCATATCC | 0.0235 ± 0.028
GAACGCGA | 0.203 ± 0.025
CGAATTCG | 0.19 ± 0.0055
ATATGTAC | -0.225 ± 0.029
CGCGCACC | 0.206 ± 0.0087
AGAGCAGA | -0.172 ± 0.022
ACCGTATA | -0.165 ± 0.004
CAGAGGCA | -0.215 ± 0.071
AGACGGAT | -0.228 ± 0.095
ATAGAAAA | -0.0831 ± 0.057
AAGCCGCT | -0.0516 ± 0.058
AGATACTG | -0.154 ± 0.011
ACTCTCAC | 0.3138 ± 0.0026
CATAATAA | -0.206 ± 0.013
AATTGCGT | -0.0764 ± 0.07
AATATTGC | -0.00643 ± 0.055
CCTGAATA | 0.036 ± 0.032

Sequence | PBM E-score of 8-mer
CACACAGC | 0.262 ± 0.0099
CCTTGTCA | 0.26 ± 0.015
AGCGCTCA | 0.053 ± 0.024
AAATGTGA | 0.277 ± 0.044
AATGACGA | 0.00527 ± 0.012
GATTCATA | -0.227 ± 0.11
CAAAGAGG | 0.105 ± 0.051
CTAGGAGC | -0.0098 ± 0.016
CAATAGCC | -0.0484 ± 0.13
AATCGACT | -0.225 ± 0.022
CCTAGCAA | 0.128 ± 0.069
CCTCGCTC | -0.00398 ± 0.058
TGGTTCAA | -0.06 ± 0.043
ACGTGACT | 0.0526 ± 0.086
GACACGAC | 0.154 ± 0.017
CGACCGCA | 0.113 ± 0.022
AATGACTA | -0.103 ± 0.031
AAGATGAT | 0.0937 ± 0.069
AGCTGTAG | -0.152 ± 0.02
ATGTGGGG | -0.0613 ± 0.0012
GCCCCCAA | -0.0898 ± 0.038
ACATTGGT | 0.0988 ± 0.052
GGTAGAAC | -0.0423 ± 0.0042
GAGGTGGC | 0.372 ± 0.036
ACTATAAG | 0.000855 ± 0.077

Sequence | PBM E-score of 8-mer
TGGATTAA | -0.24 ± 0.021
CGCTGACA | 0.273 ± 0.04
GGCTTGCA | -0.164 ± 0.0094
CTCCCGTA | -0.1898 ± 0.001
AGCCGAAA | -0.144 ± 0.044
GTGCTAAC | 0.453 ± 0.0072
AATTTACC | -0.241 ± 0.011
ATCATATA | -0.078 ± 0.0047
CCACAATC | 0.0332 ± 0.025
CTCCTATA | -0.0626 ± 0.15
GCACTTAC | 0.178 ± 0.015
TAAGGACA | -0.164 ± 0.12
GAACTGAA | -0.228 ± 0.021
AGTCCGGC | -0.12 ± 0.06
CGTGCCTC | -0.0145 ± 0.032
CAGGAAGA | -0.0995 ± 0.043
ACGTCTGA | 0.0062 ± 0.02
ACATAGAG | -0.023 ± 0.014
ACGGACCA | -0.341 ± 0.054
ACAATGCT | -0.00281 ± 0.021
CTGACACC | 0.464 ± 0.0063
CAGGGTAG | 0.0544 ± 0.044
AGTCTACG | -0.17 ± 0.11
AGCAACAC | 0.383 ± 0.0078
GGTCCACC | -0.112 ± 0.0051

Sequence | PBM E-score of 8-mer
GTCCAGAC | -0.166 ± 0.033
AGCTATCA | 0.0361 ± 0.064
GAAAGAAA | -0.0738 ± 0.058
GCTACTGA | 0.0152 ± 0.032
CAGTGACC | 0.033 ± 0.031
CCTGCAAA | 0.0897 ± 0.028
GTAGGGTA | 0.103 ± 0.048
AACGGTAA | -0.196 ± 0.017
ACTCCCGA | -0.177 ± 0.055
GTAAGCAC | 0.00651 ± 0.056
TACAAGAA | -0.0614 ± 0.062
CCGGGCTA | -0.152 ± 0.051
CTAGTCAC | 0.0813 ± 0.05
CACAGGTG | 0.461 ± 0.0062
CTGCCCAA | 0.0374 ± 0.083
GTTGACAA | 0.3821 ± 0.0035
AACTACCC | -0.127 ± 0.0075
ATACGTGC | 0.105 ± 0.039
AAGGTAGA | -0.17 ± 0.0066
AGATTTAA | 0.0303 ± 0.02
AATCGTAG | -0.191 ± 0.024
CGTCCCAC | 0.0104 ± 0.099
